Data on 20 variants can be found in the RNAGym collection of RNA variant scans (doi:10.7554/elife.90254).

To fix the notation:
B1: LINE1-full (parent)
chain: UACGUAGGUGGUUUUCCCCUGAUAGUGCUAAGGGGGCCUGGAAGUUUGGACUGGGCAGAGCUCAACACAGCGUGGCAAAGUGGCUGUGGCUAGACUGCCUCUCUGGAUUCCUCGUCACUCAGCAGGGCAUCUCUGAGAGAAAUGCC

The source gives no read counts; variants with many changes may rest on few reads.

The variants in the data set derive from B1. Kind of data set: self-cleavage, relative activity (ratio to wild type); higher = more cleavage; in vitro, sequencing; the parent is a self-cleaving ribozyme.
Regarding CACGUAGGUGGUUUUCCCCUGAUAGUGCUAAGGGGGCCUGGAAGUUUGGACUGGGCAGAGCUCAACACAGCGUGGCAGAGUGGCUGUGGCUAGACUGCCUCUCUGGAUUCCUCGUCACUCAGCAGGGCAUCUCUGAGAGAAGUGCC, the self-cleavage was found to be 0.63.

In the case of CACGUAGGUGGUUUUCCCCUGAUAGUGCUAAGGGGGCCUGGAAGUUUGGACUGGGCAGAGCUCAACACAGCGUGGCGAAGUGGCUGUGGCUAGACUGCCUCUCUGGAUUCCUCGUCACUCAGCAGGGCAUCUCUGAGAGGAAUGCC, the self-cleavage is 1.18.

CACGUAGGUGGUUUUCCCCUGAUAGUGCUAAGGGGGCCUGGAAGUUUGGACUGGGCAGAGCUCAACACAGCGUGGCAAAGUGGCUGUGGCUGGACUGCCUCCCUGGAUUCCUCGUCACUCAGCAGGGCAUCUCUGAGAGAAAUGCC: the self-cleavage came to 0.18.

For CACGUAGGUGGUUUUCCCCUGAUAGUGCUAAGGGGGCCUGGAAGUUUGGACUGGGCAGAGCUCAACACAGCGUGGCAAAGUGGCUGUGGCUAGGCUGCCUCUCUGGAUUCCCCGUCACUCAGCAGGGCAUCUCUGAGAGAAACGCC, the self-cleavage was found to be 0.22.

In the case of CAUGUAGGUGGUUUUCCCCUGAUAGUGCUAAGGGGGCCUGGAAGUUUGGACUGGGCAGAGCUCAACACAGCGUGGCAAAGUGGCUGUGGCUAGACUGCCUCUCUGGGUUCCUCGUCACUCAGCAGGGCAUCUCUGAGAGAAAUGCC, the self-cleavage worked out at 1.31.

Take CACGUAGGUGGUUUUCCCCUGAUAGUGCUAAGGGGGCCUGGAAGUUUGGACUGGGCAGAGCUCAACACAGCGUGGCAAGGUGGCUGUGGCUAGACUGCCUCUCUGGGUUCCCCGUCACUCAGCAGGGCAUCUCUGAGAGAAAUGCC: the self-cleavage was 0.92.

As for CACGUAGGUGGUUUUCCCCUGAUAGUGCUAAGGGGGCCUGGAAGUUUGGACUGGGCAGAGCUCAGCACAGCGUGGCAAAGUGGCCGUGGCUAGACUGCCUCUCUGGACUCCUCGUCACUCAGCAGGGCAUCUCUGAGAGAAAUGCC, the self-cleavage was found to be 0.

As to CACGUAGGUGGUUUUCCCCUGAUAGUGCUAAGGGGGCCUGGAAGUUUGGACUGGGCAGAGCUCAACACAGCGUGGCAAUGUGGCUGUGGCUAGACUGCCUCUCUGGAUUCCUCGUCACUCAGCAGGGCUUCUCUGAGAGAAAUGCC, the self-cleavage came to 1.81.

Consider CACGUAGGUGGUUUUCCCCUGAUAGUGCUAAGGGGGCCUGGAAGUUUGGACUGGGCAGAGCUCAACACAGCGUGGCGAAGUGGCUGUGGCUAGACAGCCUCUCUGGAUUCCUCGUCACUCAGCAGGGCAUCUCUGGGAGAAAUGCC, for which the self-cleavage was 0.13.

Consider CACGUAGGUGGUUUUCCCCUGAUAGUGCUAAGGGGGCCUGGAAGUUUGGACUGGGCAGAGCUCAACACAGCGUGGCAGGGUGGCUGUGGCUAGACUGCCUCUCUGGAUUCCUCGUCACUCAGCAGGGCAUCUCUGAGAGAAAUGCC, for which the self-cleavage was found to be 0.9.

For CACGUAGGUGGUUUUCCCCUGAUAGUGCUAAGGGGGCCUGGAAGUUUGGACUGGGCAGAGCUCAACACUGCGUGGCAAAGUGGCUGUAGCUAGACUGCCUCUCUGGAUUCCUCGUCACUCAGCAGGGCUUCUCUGAGAGAAACGCC, the self-cleavage stood at 0.04.

As for CACGUAGGUGGUUUUCCCCUGAUAGUGCUAAGGGGGCCUGGAAGUUUGGACUGGGCGGAGCUCAACACAGCGUGGCAAAGUGGCAGUGGCUAGACUGCCUCUCUGGAUUCCUCGUCACUCAGCAGGGCAUCUCUGAGAGAAAUGCC, the self-cleavage is 0.05.

CACGUAGGUGGUUUUCCCCUGAUAGUGCUAAGGGGGCCUGGAAGUUUGGACUGGGCAGAGCUCAGCACAGCGUGGCAAAGUGGCUGUGGCUAGACUGCCUCUCUGGAUUCCUCGUCACUCAGCUGGGCAUCUAUGAGAGAAAUGCC: the self-cleavage was 0.05.

Regarding CACGUAGGUGGUUUUCCCUUGAUAGUGCUAAGGGGGCCUGGAAGUUUGGACUGGGCAGAGCUCAACACAGCGUGGCAAAGUGGCUGUGGCUAGACUGCCUCUCUGGAUUCCUCGUCACUCAGCAGGGCAUCUCUGAGGGAAAUGCC, the self-cleavage amounted to 0.

Regarding CACGUAGGUGGUUUUCCCCUGAUAGUGCUAAGGGGGCCUGGAAGUUUGGACUGGGCAGAGCUCGACACAGCGUGGCAAAGCGGCUGUGGCUAGACUGCCUCUCUGGAUUCCUCGUCACUCAGCAGGGCUUCUCUGAGUGAAAUGCC, the self-cleavage is 0.19.

Take CACGUAGGUGGUUUUCCCCUGAUAGUGCUAAGGGGGCCUGGAAGUUUGGACUGGGCUGAGCUCCACACAGCGUGGCAAAGUGGCUGUGGCAAGACUGCCUCUCUGGAUUCCUCGUCACUCAGCAGGGCAUCACUGAGAGAAAUGCC: the self-cleavage was 0.22.

As to CACGUAGGUGGUUUUCCCCUGAUAGUGCUAAGGGGGCCUGGAAGUUUGGGCUGGGCAGAGCCCAACACAGCGUGGCAAAGUGGCUGCGGCUAGACUGCCUCUCUGGAUUCCUCGUCACUCAGCAGGGCAUCUCUGAGAGAAAUGCC, the self-cleavage turned out to be 0.

Regarding CAUGUAGGUGGUUUUCCCCUGAUAGUGCUAAGGGGGCCUGGAAGUUUGGACUGGGCAGAGCUCAACACAGCGUGGCAAAGUGGCUGUGGCUAGACUGCCCCUCUGGAUUCCUCGUCACUCAGCAGGGCAUCUCUGAGAGAAAUGCC, the self-cleavage worked out at 0.31.

As to CACGUAGGUGGUUUUCCCCUGAUAGUGCUAAGGGGGCCUGGAAGUUUGGACUGGGCAGAGCUCAACUCAGCGUGGCAAAGUGGCUGUGGCUAGACUGCCUCUCUGGAUUCCCCGUCACUCGGCAGGGCAUCUCUGAGAGAAAUGCC, the self-cleavage turned out to be 0.14.

Take CACGUAGGUGGUUUUCCCCUGAUAGUGCUAAGGGGGCCUGGAAGUUUGGACUGGGCAGAGCUCAACACAGCGUGGCAAAGUGGCUGUGGCUAGACUGCCUCUCUGGAUUCCUCGUCACUCGGCAGGGCAUCUCUGAGUGAAAUGCC: the self-cleavage was determined as 0.63.
